According to the supplement of paper PMC3334620:
Whole data set: some 33,000 sequences, median “E-score (-0.5 to 0.5)” near -0.054, cut for the highest 2% near 0.35. Some of the results follow.

Target: T1, Stb5 (UniProt P38699)
T1 sequence: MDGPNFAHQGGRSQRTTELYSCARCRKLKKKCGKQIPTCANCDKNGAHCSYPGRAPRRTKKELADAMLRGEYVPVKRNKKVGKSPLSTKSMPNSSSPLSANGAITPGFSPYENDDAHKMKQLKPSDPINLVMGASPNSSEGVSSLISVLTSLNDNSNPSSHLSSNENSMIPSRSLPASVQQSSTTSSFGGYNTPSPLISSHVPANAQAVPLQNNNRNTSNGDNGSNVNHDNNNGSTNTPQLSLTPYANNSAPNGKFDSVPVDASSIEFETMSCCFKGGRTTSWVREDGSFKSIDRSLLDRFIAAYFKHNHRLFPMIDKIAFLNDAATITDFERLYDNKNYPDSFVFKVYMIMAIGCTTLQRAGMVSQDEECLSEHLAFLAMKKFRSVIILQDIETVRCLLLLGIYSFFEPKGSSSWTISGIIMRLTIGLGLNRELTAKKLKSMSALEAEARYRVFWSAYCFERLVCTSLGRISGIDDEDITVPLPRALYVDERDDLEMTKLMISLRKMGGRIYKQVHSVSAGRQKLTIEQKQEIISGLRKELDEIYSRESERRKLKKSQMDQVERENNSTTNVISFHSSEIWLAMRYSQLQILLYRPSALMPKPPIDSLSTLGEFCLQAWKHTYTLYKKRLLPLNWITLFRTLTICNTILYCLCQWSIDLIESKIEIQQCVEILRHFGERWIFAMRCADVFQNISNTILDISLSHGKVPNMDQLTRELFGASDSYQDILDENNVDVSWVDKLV
Experiment: PBM E-score (8-mer binding enrichment) (E-score (-0.5 to 0.5)); higher = stronger / more preferred TF binding; most listed sequences are background and not binding sites
Details: protein concentration: 200 nM; construct: GST-full length
Summary of the method: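 Full-length yeast transcription factors or their DNA-binding domains, GST-tagged and expressed with PURExpress, were applied at about 100-200 nM to universal all-10-mer Agilent arrays. These arrays had been made double-stranded by primer extension on fresh or once-stripped slides. Detection used fluorescent anti-GST, normalisation used masliner, and E-scores for ungapped eight-base words pooled with reverse complements came from the Universal PBM Analysis Suite.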

Sequence	PBM E-score
CGCGAAAG	0.0124
CTGCCTTC	-0.21
GCTCACCC	-0.0631
AACATCAT	-0.176
AAGGCCAA	-0.139
AAGCCCAT	-0.0309
AGACCTAT	-0.14
CCTATTGA	-0.265
AAGAGGAG	-0.135
ATACCTAG	-0.233
GAGTTATC	0.115
CACCTTTA	-0.129
AGTGTGTA	-0.136
CATCCCAC	-0.00896
GATTCAAA	-0.202
CCTGACAC	-0.0445
ACGCCCCG	0.188
CGGCGCCA	0.377
CAGAGCCG	-0.0711
GATAGTGC	-0.0287
ACTAATGG	0.033
CAAATTCA	-0.118
AATGTCCA	-0.0901
ACACCACT	-0.0749
CCACCCGC	0.0272

Sequence	PBM E-score
GTTTGGGA	-0.2
AACAAGCT	-0.163
GTAATTGA	0.175
GACCGGGA	0.248
CTAGCTAC	-0.214
ATGGCAAT	-0.208
GATTTACC	0.24
AGCTCACC	-0.0411
AGTCCGAG	0.237
ACAACCAT	0.0398
AGCACTGG	-0.105
TACTACTA	0.0732
CCACTGAG	-0.275
GATCCAAA	-0.253
ACCGCATC	0.127
CGCGATTC	0.134
AGATCACC	-0.0404
AGTACAGA	-0.173
TACCGGGA	0.293
AACATTAA	0.00533
ACACTCGT	-0.131
CTCATCTA	-0.105
CGAATCAG	-0.224
CCATTCCA	-0.0271
CTGGGAGC	-0.0302

Sequence	PBM E-score
AGGAGGGC	-0.181
CGGAGACA	0.398
CCATACCC	0.0983
GGCACCGA	0.351
CTGTGGGC	-0.127
AAAACATC	-0.0882
CAACAGAG	-0.0253
AACGCGTC	-0.0218
GCGAAATA	0.00371
GAAGCAAC	-0.137
CGCGGTGA	0.359
ACCCTTAT	-0.149
CCCCCGGA	0.166
AATCGCGC	0.15
AAAATTCG	-0.00243
AGATATCA	-0.00944
TGGTATAA	0.0916
GAACTTCC	0.0586
CATAGCGC	0.161
CATAACGC	0.0732
TAAGCTCA	-0.126
AAGCTCAG	-0.273
AAACGAAA	-0.0418
CGTTTGAG	0.0195
CCACACGA	-0.15

Sequence	PBM E-score
TAGGAACA	-0.128
GTTCCCCA	-0.0221
AACGCGTT	-0.102
GATGTGAA	-0.195
AAACTTCC	0.141
GATATACC	0.201
AAGTTTGC	-0.102
CGAGAAAG	-0.067
CGAGCAGA	-0.166
GCCGCGGC	0.331
AACGCACA	-0.0197
ATCATGGA	-0.291
ATTTCCTC	-0.068
CATAGCGG	0.28
AACTCGTA	-0.179
CGCTCTGC	0.0745
CATGCGCG	-0.0122
ATCGATCC	0.0714
CTACGAGA	-0.102
ATGCTTGG	-0.259
ATTTTTCA	0.078
AGAAGAGA	-0.219
AAGAAGTC	-0.0148
CCTCCCCG	0.185
TAACCGCA	0.0848

Sequence	PBM E-score
CGATCAAA	-0.0222
AGGAATTA	-0.00087
GGTCCGAC	0.411
AATGGAGC	-0.142
GGGTTAAA	0.243
CTTCTGTA	-0.09
CAGTTTCG	-0.093
GCGACCGA	0.132
AACTTCCC	-0.179
CAAACAGG	-0.167
CAGCGGGC	0.224
CCGCCCCC	0.335
AATACAAG	-0.113
CAGCTCCA	-0.295
CTCGAAAC	-0.0616
CACACGGG	0.105
AAGCAAAA	-0.27
GCTTCATA	0.0806
CTGTGGGA	-0.127
CAAATACA	-0.133
TAGAGAAA	-0.214
GCGATAGC	-0.117
CTAATTTC	-0.126
ACCAGATG	-0.22
CCAGACCC	-0.147

Sequence	PBM E-score
CAGATTCG	0.0701
CGGGCCCC	0.205
AGGCGCCA	0.041
GGTGACAC	0.215
CCGAGGGA	-0.0438
GGGACTCA	-0.0395
TCGCACGA	-0.0994
AATCATGA	-0.136
CCTGCTCC	-0.0646
AGTTTGGC	-0.0382
TCAAGACA	-0.128
CCAAGTCA	-0.0966
AATAAAAG	0.0231
AAAAACTT	0.0601
ACCAGCTG	-0.256
ACTTGCGG	0.151
TACGTACA	-0.0556
AAGTCAGG	-0.0915
GGCCCCAA	0.126
CGCTAGGC	0.00344
CATATCAA	-0.0419
AAGATAGA	-0.123
CAGGTATA	0.0512
AGCCGAAT	-0.0689
ACGTATTC	0.0547

Sequence	PBM E-score
AACGCTGG	-0.137
CCTTATCG	-0.0308
GCTTCGCC	0.065
AGGTACGC	-0.0909
CACCCAAA	-0.0454
CTGCGTAA	-0.11
ACCAATAA	0.0928
CTTTTGCA	-0.0933
TCCAGGAA	-0.214
CCATAGGA	-0.155
AAATTCAG	-0.221
ATCCAGAG	-0.273
GTGCAAAA	-0.162
GAACCACC	0.192
AGTCAGCG	0.0404
CTTGACGC	-0.0574
TCCCCTAA	-0.134
TCGCAAGA	-0.172
ACTGCTGC	-0.0258
GTCGGAGA	0.373
ATGGCTAG	-0.223
ATAGCTTA	-0.105
